# Screen size: about 220,000 compounds; about 5,700 (2.6%) were called active. The inconclusive results got no clear call from the source; some entries with a clear call stand among them for comparison. The call rests on the fitted dose curve; in most records, active means well fitted inhibition curve with a large enough effect; inconclusive means small, poorly fitted or top-dose-only effect; inactive means no such curve, though single readings can be large or run the other way. Potencies beside an inconclusive call are fits to weak or partial responses and may not hold up.
# Molecular target: Lysine-specific demethylase 5B (Homo sapiens) (UniProt Q9UGL1)
# UniProt Q9UGL1, sequence (Q9UGL1 whole entry, looked up): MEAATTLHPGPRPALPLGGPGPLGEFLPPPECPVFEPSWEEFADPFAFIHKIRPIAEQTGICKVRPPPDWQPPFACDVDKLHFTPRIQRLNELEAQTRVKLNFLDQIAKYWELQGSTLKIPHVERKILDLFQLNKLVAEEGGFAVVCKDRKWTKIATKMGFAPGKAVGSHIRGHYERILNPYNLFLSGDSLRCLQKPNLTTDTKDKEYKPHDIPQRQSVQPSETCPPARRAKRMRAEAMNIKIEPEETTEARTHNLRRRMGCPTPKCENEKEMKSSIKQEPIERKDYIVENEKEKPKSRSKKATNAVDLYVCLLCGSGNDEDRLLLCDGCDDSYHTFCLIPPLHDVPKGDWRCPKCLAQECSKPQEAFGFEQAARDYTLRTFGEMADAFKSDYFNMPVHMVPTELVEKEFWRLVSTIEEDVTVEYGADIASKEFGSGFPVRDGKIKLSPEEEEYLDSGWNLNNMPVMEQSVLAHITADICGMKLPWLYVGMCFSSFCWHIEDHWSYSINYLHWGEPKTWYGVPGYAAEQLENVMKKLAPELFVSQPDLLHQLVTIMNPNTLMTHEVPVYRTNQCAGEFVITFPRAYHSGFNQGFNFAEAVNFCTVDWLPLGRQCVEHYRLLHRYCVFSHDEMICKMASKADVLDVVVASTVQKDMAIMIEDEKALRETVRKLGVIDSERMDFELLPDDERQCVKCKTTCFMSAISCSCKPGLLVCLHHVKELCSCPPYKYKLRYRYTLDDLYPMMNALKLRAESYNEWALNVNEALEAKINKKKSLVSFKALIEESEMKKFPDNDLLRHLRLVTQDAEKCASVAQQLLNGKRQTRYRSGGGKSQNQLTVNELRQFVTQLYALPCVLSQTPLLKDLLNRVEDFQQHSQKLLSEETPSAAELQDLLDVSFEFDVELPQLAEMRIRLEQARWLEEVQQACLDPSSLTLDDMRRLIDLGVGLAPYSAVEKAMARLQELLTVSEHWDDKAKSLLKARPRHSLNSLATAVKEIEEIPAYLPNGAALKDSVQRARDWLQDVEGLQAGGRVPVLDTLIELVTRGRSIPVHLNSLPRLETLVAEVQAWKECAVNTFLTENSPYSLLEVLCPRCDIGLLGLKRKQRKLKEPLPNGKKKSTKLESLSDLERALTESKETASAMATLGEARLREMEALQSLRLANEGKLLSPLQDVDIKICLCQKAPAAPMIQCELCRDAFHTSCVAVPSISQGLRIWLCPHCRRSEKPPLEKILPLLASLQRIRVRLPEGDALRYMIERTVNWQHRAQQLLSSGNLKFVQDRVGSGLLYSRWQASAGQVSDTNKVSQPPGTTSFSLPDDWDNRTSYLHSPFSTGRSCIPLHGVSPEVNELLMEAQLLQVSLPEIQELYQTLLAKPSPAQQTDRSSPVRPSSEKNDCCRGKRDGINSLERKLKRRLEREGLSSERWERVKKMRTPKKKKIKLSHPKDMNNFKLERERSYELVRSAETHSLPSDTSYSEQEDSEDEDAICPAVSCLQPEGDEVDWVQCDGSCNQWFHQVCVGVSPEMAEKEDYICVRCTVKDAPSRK
# Experiment: Primary screen for KDM5B Histone Demethylases FDH-coupled qHTS; further: nearly all actives have a fitted effect of over 70% in size; on activity change, negative = inhibition: 0% is about no effect
# Conditions: FDH-coupled NADH fluorescence (FDH is formaldehyde dehydrogenase); activity change, negative = inhibition: at 57.7 µM (top of the series) unless noted
# How it was run: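 Compound dilutions met 200 nM (final) KDM5BΔAP for 10 min at room temperature before substrate addition. The substrate mix held 12.5 µM H3K4me3 with cofactors 25 µM α-ketoglutarate and 50 µM Fe²⁺. NADH signal gain over 30 min defined activity.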
# Potency means the concentration at half of the fitted maximal effect; tags describe the fitted curve by direction and shape.
Structure (SMILES),Potency,"activity change, negative = inhibition"
CC(=O)c1c(Nc2ccc(Cl)cc2)oc(C)cc1=O,inactive,–
C[C@@H](N)C(=O)N1CCC(n2nccc2NC(=O)Nc2ccccc2Cl)CC1,"inconclusive: 4.47 µM [inhibitor, full curve, poor fit]",–
Cc1ccc(-c2nc(CN3CCN(CC(=O)Nc4cccc(C)c4C)CC3)co2)cc1,inactive,–
CCN1CCN(c2oc(-c3ccc(OC)c(OC)c3)nc2C#N)CC1,"inconclusive: 22.4 µM [inhibitor, partial curve, poor fit]",–
Cc1ccc2nc(CN3CCCC(CO)(CC4CC4)C3)cn2c1 (stereo unspecified),active: 22.4 µM,–
Cn1cc(S(=O)(=O)N2CCc3ccccc32)cc1C(=O)Nc1ccc(C(F)(F)F)cc1,"inconclusive: 17.8 µM [inhibitor, partial curve, poor fit]",–
COc1ccc(-c2nc(C3CC(=O)N(c4ccc(F)c(Cl)c4)C3)no2)cc1 (stereo unspecified),"inconclusive: 25.1 µM [inhibitor, single point]",–
O=C(O)Cn1ccc2cc(OCC3CCN(C(=O)OC4CCCC4)CC3)cnc21,active: 35.5 µM,–
COc1cccc(CNC(=O)c2cc3cc(C)ccc3n2C)c1,"inconclusive: 28.2 µM [inhibitor, single point]",–
CCCOc1ccc(C(=O)Nc2cc(-c3nc4ccccc4[nH]3)ccc2C)cc1,"inconclusive: 39.8 µM [inhibitor, partial curve, poor fit]",–
Cn1ccc(NC(=O)c2ccc3c(c2)NC(C)(CNCc2ccccc2)CO3)n1 (stereo unspecified),"inconclusive: 28.2 µM [inhibitor, partial curve, poor fit]",–
Cc1ccccc1NC(=O)N1CCC(CCNC(=O)c2ccnn2C)CC1,inactive,–
CCCn1c2ccccc2c2cn[nH]c(=O)c21,"inconclusive: 31.6 µM [inhibitor, single point]",–
Cc1cccc2nc(C(=O)N3CCC(=O)N(CC4CC4)C(C(C)C)C3)cn12 (stereo unspecified),inactive,–
COC(=O)c1cc(NC(=O)c2cc(-c3ccc(C(F)(F)F)cc3)oc2C(F)(F)F)ccc1N1CCOCC1,"inconclusive: 35.5 µM [inhibitor, single point]",–
COc1cc(NC(=O)c2cc(-c3ccccc3O)no2)cc(OC)c1OC,"inconclusive: 31.6 µM [inhibitor, single point]",–
CCc1ccc(NC(=O)C2CCN(c3nc4ccccc4nc3OC)CC2)cc1,inactive,–
COCc1cc(=O)n(CC(=O)Nc2ccccc2OC)c(N2CCOCC2)n1,"inconclusive: 25.1 µM [inhibitor, partial curve]",–
Cc1ccc(N(C(=O)c2snc(C(N)=O)c2N)C(C(=O)NCC2CCCO2)c2ccc3ncccc3c2)cc1 (stereo unspecified),"inconclusive: 39.8 µM [inhibitor, single point]",–
Cc1cc(C)n2nc(C(=O)N3CCCC4(CNC(=O)O4)C3)cc2n1 (stereo unspecified),active: 25.1 µM,–
NS(=O)(=O)c1ccc(N/N=C/c2ccco2)c([N+](=O)[O-])c1,inactive,–
Cc1cccc(N2CCN(c3nc4ccccc4c4nc(-c5ccccc5)nn34)CC2)c1C,inactive,–
CC(=O)Nc1ccc(NC(=O)C(C)Sc2nc3ccc(Cl)cc3c(=O)n2CC(C)C)cc1 (stereo unspecified),inactive,–

Structure (SMILES),Potency,"activity change, negative = inhibition"
CCc1noc(-c2cccn3c(CNC(=O)c4c(F)cccc4Cl)nnc23)n1,active: 28.2 µM,–
Cn1c(C(=O)N2CCNc3cnc(Nc4ccccc4)nc3C2)cc2ccccc21,inactive,–
Cc1ccc(F)cc1-n1nc(-c2c(C)nc3scc(CC(=O)N4CCCC4)n3c2=O)cc1C,"inconclusive: 31.6 µM [inhibitor, partial curve, poor fit]",–
COc1cc(C2C(C(N)=O)=C(C)Nc3nc(SCc4ccccc4F)nn32)cc(OC)c1OC (stereo unspecified),inactive,–
COc1ccccc1NC(=O)Nc1cccc(-c2ccc(N3CCCCC3)nn2)c1,inactive,–
CC(C)(C)C(=O)NC(Nc1ccc2ccccc2c1)C(Cl)(Cl)Cl (stereo unspecified),inactive,–
CC(C)N1C(=O)C2(CCCCC2)C1C(=O)NCCCN1CCCc2ccccc21 (stereo unspecified),"inconclusive: 25.1 µM [inhibitor, partial curve, poor fit]",–
Cc1noc(C)c1C(=O)N1CCn2c(nnc2-c2cncc(Br)c2)C1,"inconclusive: 89.1 µM [inhibitor, partial curve, poor fit]",–
COc1cc(C#N)ccc1OCc1ccc(F)cc1Br,inactive,–
COc1ccc(-c2noc([C@@H]3CCCN3C(=O)c3ccc(C)c(C)c3)n2)cc1,inactive,–
N#Cc1ccc(F)c(CSc2nnc(NCc3ccccc3)s2)c1,inactive,–
CCN(C(=O)CCS(=O)(=O)c1cccc2nsnc12)c1cccc(C)c1,–,inconclusive: -40.6% [inhibitor]
CC(C)Cc1nc2nccc(-c3ccc4c(c3)OCCCO4)n2n1,active: 28.2 µM,–
O=C(Nc1nc2n(n1)C(c1ccc(F)cc1)C=C(c1ccc(Cl)cc1)N2)c1ccco1 (stereo unspecified),"inconclusive: 20 µM [inhibitor, partial curve, poor fit]",–
CCOc1ccc2oc(=O)cc(CN3CCN(c4ccc(OC)cc4)CC3)c2c1,"inconclusive: 7.08 µM [inhibitor, partial curve, poor fit]",–
CCN(C(=O)c1cc2c(s1)-c1c(C)cccc1OC2)c1cc(C)ccc1C,"inconclusive: 35.5 µM [inhibitor, partial curve, poor fit]",–
COc1ccc(NC(=O)c2ccc(-c3ccc(S(=O)(=O)N4CCCC4)cc3)cc2)cc1Cl,inactive,–
COCCN1CCCCCC(O)c2cc(C(=O)Nc3ccc(C)cc3)ccc21 (stereo unspecified),"inconclusive: 20 µM [inhibitor, single point]",–
Cc1cn2nc(C(=O)N3CCN(c4ccccc4F)CC3)cc2c(N2CCCC2)n1,active: 31.6 µM,–
COCCN1C(=O)CS(=O)C12CCN(C(=O)c1ccc3cc[nH]c3c1)CC2 (stereo unspecified),active: 17.8 µM,–
O=C(NC1CCCC1)c1cc(-c2ccc(Cl)s2)nc2ccccc12,"inconclusive: 28.2 µM [inhibitor, partial curve, poor fit]",–
O=C1CCN(C(=O)[C@@H]2CCCN2)CCCCCCN1,"inconclusive: 20 µM [inhibitor, partial curve]",–
COc1ccc2nc(C)cc(SCC(NC(C)=O)C(=O)O)c2c1 (stereo unspecified),"inconclusive: 11.2 µM [inhibitor, partial curve, poor fit]",–

# Source: PubChem BioAssay AID1347165 (National Center for Advancing Translational Sciences (NCATS), 2019)
